According to PubChem BioAssay:
This list was built around the results that the source calls inconclusive (neither active nor inactive); the mix of calls is not that of the screen. Active and inactive are the calls of the source.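 The calls were made as follows, unless noted: active = thallium flux rate significantly above the same plate's solvent-only control wells, beyond their mean plus 3 SD; inconclusive = the two replicate wells gave conflicting results; inactive = the rest.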

Legend:
[1] = compound effects on native HEK Tl+ uptake – HEK cells, counterscreen 1, counter-screen for KCC2 modulator project, confirmation (AID 1716); settings: HEK293 parental cells, thallium flux FluoZin2, ouabain; at 10 µM; baseline-ratio fluorescence slope, 10–20 s after thallium
[2] = native HEK Tl+ uptake effects, second counter-screen – HEK cells, counterscreen 2, counter-screen for KCC2 modulator project, confirmation (AID 1718;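 active = thallium flux slope above the same plate's solvent-control mean plus 3 SD in both duplicate wells; inconclusive = duplicate wells that disagreed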;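 also: run without ouabain in cells lacking the KCC2 cotransporter; slope of fluorescence scaled to its starting value between 10 and 20 s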); settings: HEK293 parental, thallium flux FluoZin-2 fluorescence slope; at 10 µM
How it was run: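 Test system: parental HEK cells / Reagent: thallium sulfate stimulus, 12 mM in buffer, pH 7.3 / Compound: single 10 µM final compound dose, 0.1% DMSO / Timing: overnight cell culture at 37 °C, 48 min dye loading, compound before thallium / Detection: FluoZin-2 fluorescence kinetics / Read-out: rate of F/F0 rise, 10–20 s after thallium addition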

[3] = molecular target: Solute carrier family 12 member 5 (Homo sapiens) (UniProt Q9H2X9); assay: modulation of KCC2 thallium flux in HEK cells – cell-based, ouabain, retest, confirmation (AID 1717;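 active = thallium flux slope beyond 3 SD from same-plate DMSO control mean in most replicates, usually higher, sometimes lower; inconclusive = repeat tests gave conflicting results; inactive = no significant difference from controls in most replicates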;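 also: slope of initial-normalized fluorescence between seconds 10 and 20 after thallium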); settings: HEK293-KCC2, thallium flux FluoZin2 fluorescence, at 10 µM, bidirectional: low = inhibitor, high = activator
[4] = inhibitors of TNFa-induced NFkB p65 translocation, primary screen, imaging, HUVEC, MLSMR starter and 10KST1 sets (AID 438;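 active = inhibition above 20% together with a positive visual image hit; inconclusive = visual image hit but inhibition not above 20%; inactive = no visual image hit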;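 also: compound added about 3h40 before a 20 min TNFalpha stimulation; signal is the nuclear over cytoplasmic p65 intensity ratio per well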); settings: HUVEC TNFa-induced p65 nuclear translocation, at 2 µM, stronger effect = higher value, 0% TNFa-plus-vehicle, 100% no-TNFa wells

UniProt Q9H2X9, sequence (Q9H2X9 whole entry, looked up): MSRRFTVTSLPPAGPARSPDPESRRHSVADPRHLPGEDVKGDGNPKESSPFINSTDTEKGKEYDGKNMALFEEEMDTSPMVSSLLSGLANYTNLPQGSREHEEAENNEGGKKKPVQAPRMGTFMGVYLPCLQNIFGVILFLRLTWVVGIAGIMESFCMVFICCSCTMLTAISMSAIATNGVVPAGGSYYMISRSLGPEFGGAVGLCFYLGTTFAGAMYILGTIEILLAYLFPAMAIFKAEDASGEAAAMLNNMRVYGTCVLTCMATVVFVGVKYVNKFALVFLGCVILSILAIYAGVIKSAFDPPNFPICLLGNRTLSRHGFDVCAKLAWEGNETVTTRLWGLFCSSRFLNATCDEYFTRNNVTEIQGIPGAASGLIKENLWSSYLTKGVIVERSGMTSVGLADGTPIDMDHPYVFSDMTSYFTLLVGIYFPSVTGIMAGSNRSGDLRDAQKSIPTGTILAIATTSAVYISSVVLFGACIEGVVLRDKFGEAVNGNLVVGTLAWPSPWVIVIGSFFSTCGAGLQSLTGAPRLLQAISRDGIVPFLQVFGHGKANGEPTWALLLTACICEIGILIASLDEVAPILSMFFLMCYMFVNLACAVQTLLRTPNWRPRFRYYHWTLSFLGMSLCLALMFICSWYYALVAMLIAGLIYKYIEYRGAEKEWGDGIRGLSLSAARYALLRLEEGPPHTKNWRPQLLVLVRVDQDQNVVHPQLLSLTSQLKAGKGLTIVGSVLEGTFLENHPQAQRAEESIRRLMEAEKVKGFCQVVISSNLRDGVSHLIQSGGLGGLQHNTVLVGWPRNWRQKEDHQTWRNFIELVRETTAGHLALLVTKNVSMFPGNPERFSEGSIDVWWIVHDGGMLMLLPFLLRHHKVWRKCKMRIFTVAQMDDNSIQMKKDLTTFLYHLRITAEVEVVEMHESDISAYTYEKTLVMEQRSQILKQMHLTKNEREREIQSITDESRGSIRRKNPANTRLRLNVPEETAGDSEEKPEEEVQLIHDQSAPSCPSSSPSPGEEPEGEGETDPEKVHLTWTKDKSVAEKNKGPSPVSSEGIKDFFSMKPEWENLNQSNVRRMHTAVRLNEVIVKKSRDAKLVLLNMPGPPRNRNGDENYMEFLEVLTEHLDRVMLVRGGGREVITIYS

## CN(c1ccccc1)S(=O)(=O)c1ccc(C(=O)Nc2nnc(-c3ccc(F)cc3)o2)cc1
[1]
  thallium flux rate (normalised fluorescence): inconclusive: 0.0176
[2]
  thallium flux slope: inactive: 0.0124

## COc1ccc(CN2C3CCCC2CC(NC(=O)Nc2ccccc2C)C3)cc1 (centres undefined)
[1]
  thallium flux rate (normalised fluorescence): inconclusive: 0.00816
[3]
  raw Tl+ flux slope (below DMSO = inhibition, above = activation): inactive: 0.0174
[2]
  thallium flux slope: inactive: 0.01

## O=C(CSc1nnc(-c2ccc3c(c2)OCO3)o1)Nc1ncc(C(F)(F)F)cc1Cl
[1]
  thallium flux rate (normalised fluorescence): inconclusive: 0.0302
[2]
  thallium flux slope: inconclusive: 0.0175

## CC(C)n1c(NCc2nc3ccccc3n2C)nc2ccccc21
[1]
  thallium flux rate (normalised fluorescence): inactive: 0.00703
[3]
  raw Tl+ flux slope (below DMSO = inhibition, above = activation): inactive: 0.0169
[2]
  thallium flux slope: inconclusive: 0.0108

## Cc1ccc(S(=O)(=O)NCc2csc(-c3cccs3)n2)cc1
[1]
  thallium flux rate (normalised fluorescence): inactive: 0.0063
[2]
  thallium flux slope: inconclusive: 0.00847

## C=CCNC(=S)N/N=C/c1ccc(C(F)(F)F)cc1
[1]
  thallium flux rate (normalised fluorescence): inconclusive: 0.0097
[3]
  raw Tl+ flux slope (below DMSO = inhibition, above = activation): inconclusive: 0.0244
[2]
  thallium flux slope: inconclusive: 0.0139

## O=C(N=Nc1ccc(NOC(=O)c2ccccc2Br)cc1)c1ccccc1O
[3]
  raw Tl+ flux slope (below DMSO = inhibition, above = activation): inconclusive: 0.0245

## CCOc1ccc(NC(=S)NNC(=O)c2cc(Br)ccc2Cl)cc1
[1]
  thallium flux rate (normalised fluorescence): inconclusive: 0.0167
[2]
  thallium flux slope: inactive: 0.013

## CCN(CC)CCn1c(=S)[nH]c2ccc(Cl)cc2c1=O
[1]
  thallium flux rate (normalised fluorescence): inconclusive: 0.0165
[2]
  thallium flux slope: inactive: 0.014

## CC1CCCCN1S(=O)(=O)c1ccc(C(=O)Nc2nnc(-c3ccccc3Cl)o2)cc1 (centres undefined)
[1]
  thallium flux rate (normalised fluorescence): inconclusive: 0.0192
[2]
  thallium flux slope: inconclusive: 0.014

## COc1cccc(CN(C)C(=O)c2cc(COc3c(F)cccc3F)on2)c1
[1]
  thallium flux rate (normalised fluorescence): inconclusive: 0.00629
[2]
  thallium flux slope: inactive: 0.00895

## COc1ccccc1NC(=S)NC(=O)c1c(-c2ccccc2Cl)noc1C
[1]
  thallium flux rate (normalised fluorescence): inconclusive: 0.0173
[2]
  thallium flux slope: inconclusive: 0.014

## CC(Cc1cccs1)NC(=S)Nc1ccc(Cl)c(Cl)c1 (centres undefined)
[1]
  thallium flux rate (normalised fluorescence): active: 0.00843
[2]
  thallium flux slope: inconclusive: 0.00966

## O=C(CN1C(=O)NC2(CCCCCC2)C1=O)c1ccc2c(c1)OCCO2
[1]
  thallium flux rate (normalised fluorescence): inconclusive: 0.00944
[2]
  thallium flux slope: inactive: 0.0109

## COc1cc2nc(=S)n3[nH]c(COc4ccccc4C)nc3c2cc1OC
[1]
  thallium flux rate (normalised fluorescence): active: 0.00611
[2]
  thallium flux slope: inconclusive: 0.00966

## O=C(Cn1nc(-c2ccc(Cl)cc2)ccc1=O)N1CCN(c2ccccc2)CC1
[3]
  raw Tl+ flux slope (below DMSO = inhibition, above = activation): inconclusive: 0.0172

## COc1ccc(C(=O)NC(=S)N2CCCc3ccccc32)cc1OC
[3]
  raw Tl+ flux slope (below DMSO = inhibition, above = activation): inconclusive: 0.0297

## CCN(CC)c1ccc(S(=O)(=O)N2CCOCC2)cc1NC(=O)CNCc1ccccc1
[3]
  raw Tl+ flux slope (below DMSO = inhibition, above = activation): inconclusive: 0.0171

## Cc1cccc(N(CC(O)CN(C)C)S(=O)(=O)c2ccccc2)c1 (centres undefined)
[1]
  thallium flux rate (normalised fluorescence): inactive: 0.00768
[2]
  thallium flux slope: inactive: 0.0103

## COc1ccc(S(=O)(=O)Nc2ccccc2C(=O)Nc2nc(-c3ccc(F)cc3)cs2)cc1OC
[1]
  thallium flux rate (normalised fluorescence): inconclusive: 0.00583
[2]
  thallium flux slope: inactive: 0.0103

## COc1ccc(NC2=NC(=S)N(c3cccc(C)c3)C23CCCCC3)cc1
[3]
  raw Tl+ flux slope (below DMSO = inhibition, above = activation): inconclusive: 0.0268

## CNC(=S)N/N=C/c1c(C)cccc1Cl
[3]
  raw Tl+ flux slope (below DMSO = inhibition, above = activation): inconclusive: 0.0238

## Cc1cccc(NC(=S)N/N=C/c2ccc3c(c2)OCO3)c1
[1]
  thallium flux rate (normalised fluorescence): active: 0.0277
[2]
  thallium flux slope: inconclusive: 0.0126

## N=C1SCC(=O)N1c1ncc(Cc2ccccc2Cl)s1
[3]
  raw Tl+ flux slope (below DMSO = inhibition, above = activation): inconclusive: 0.025

## O=C(N/N=C/c1ccc(Br)o1)c1cncc(Br)c1
[3]
  raw Tl+ flux slope (below DMSO = inhibition, above = activation): inconclusive: 0.0306

## O=C(C(=O)N1CCN(c2ccc(F)cc2)CC1)c1c[nH]c2ccccc12
[3]
  raw Tl+ flux slope (below DMSO = inhibition, above = activation): inconclusive: 0.0179

## Cc1nc(N2CCN(Cc3ccccc3)CC2)c(C#N)c2c1COC(C)(C)C2
[4]
  inhibition: inactive: -5.4%
[1]
  thallium flux rate (normalised fluorescence): inconclusive: 0.00611

## S=c1nc(-c2ccccc2)oc2c1CCCC2
[3]
  raw Tl+ flux slope (below DMSO = inhibition, above = activation): inconclusive: 0.0361

## COC(=O)c1ccc(NC(=S)NC(=O)c2c(-c3ccccc3)noc2C)cc1
[1]
  thallium flux rate (normalised fluorescence): inconclusive: 0.012
[2]
  thallium flux slope: inactive: 0.0123

## CCOc1cc(N(CC)CC)ccc1/C=C(/C#N)c1nc2ccccc2[nH]1
[1]
  thallium flux rate (normalised fluorescence): inconclusive: 0.00861
[2]
  thallium flux slope: inactive: 0.0109

## COc1ccc(C(=O)C2CCCN(C(=O)c3noc4c3CCCC4)C2)c(C)c1 (centres undefined)
[1]
  thallium flux rate (normalised fluorescence): inconclusive: 0.00647
[2]
  thallium flux slope: inactive: 0.01

## Cc1ccc(/C=N/NC(=O)c2ccc(Br)o2)s1
[1]
  thallium flux rate (normalised fluorescence): inconclusive: 0.0059
[2]
  thallium flux slope: inactive: 0.012

## Cc1ccc(-n2c(CNc3ccc(C)c(Cl)c3)n[nH]c2=S)cc1
[1]
  thallium flux rate (normalised fluorescence): active: 0.0111
[2]
  thallium flux slope: inconclusive: 0.0105

## CCOC(=O)c1ccc2c(c1)[nH]c(=S)n2CC
[3]
  raw Tl+ flux slope (below DMSO = inhibition, above = activation): inconclusive: 0.0269

## CCN(CC)c1c([N+](=O)[O-])ncn1C
[1]
  thallium flux rate (normalised fluorescence): inconclusive: 0.00879
[2]
  thallium flux slope: inconclusive: 0.0126

## COc1cccc(C2=NOC(C(=O)N3CCN(Cc4ccccc4)CC3)C2)c1OC (centres undefined)
[1]
  thallium flux rate (normalised fluorescence): inactive: 0.00621
[2]
  thallium flux slope: inconclusive: 0.0102
